Data: PMC4764768
These are yes or no findings as the source states them, for the method shown. In cells and extracts the contact can be indirect. Some binding calls cover weakened binding; strength is not graded here. For some of these results: Where a sequence is shown, tags or fusion partners need not be part of it.

By UniProt entry, the sequences of proteins in these tests, tags left out.
UniProt P03126: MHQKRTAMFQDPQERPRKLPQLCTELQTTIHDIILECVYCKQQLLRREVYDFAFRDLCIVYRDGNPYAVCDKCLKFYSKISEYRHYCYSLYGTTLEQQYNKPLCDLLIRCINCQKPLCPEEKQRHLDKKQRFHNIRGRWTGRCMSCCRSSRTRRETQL
UniProt Q5K651: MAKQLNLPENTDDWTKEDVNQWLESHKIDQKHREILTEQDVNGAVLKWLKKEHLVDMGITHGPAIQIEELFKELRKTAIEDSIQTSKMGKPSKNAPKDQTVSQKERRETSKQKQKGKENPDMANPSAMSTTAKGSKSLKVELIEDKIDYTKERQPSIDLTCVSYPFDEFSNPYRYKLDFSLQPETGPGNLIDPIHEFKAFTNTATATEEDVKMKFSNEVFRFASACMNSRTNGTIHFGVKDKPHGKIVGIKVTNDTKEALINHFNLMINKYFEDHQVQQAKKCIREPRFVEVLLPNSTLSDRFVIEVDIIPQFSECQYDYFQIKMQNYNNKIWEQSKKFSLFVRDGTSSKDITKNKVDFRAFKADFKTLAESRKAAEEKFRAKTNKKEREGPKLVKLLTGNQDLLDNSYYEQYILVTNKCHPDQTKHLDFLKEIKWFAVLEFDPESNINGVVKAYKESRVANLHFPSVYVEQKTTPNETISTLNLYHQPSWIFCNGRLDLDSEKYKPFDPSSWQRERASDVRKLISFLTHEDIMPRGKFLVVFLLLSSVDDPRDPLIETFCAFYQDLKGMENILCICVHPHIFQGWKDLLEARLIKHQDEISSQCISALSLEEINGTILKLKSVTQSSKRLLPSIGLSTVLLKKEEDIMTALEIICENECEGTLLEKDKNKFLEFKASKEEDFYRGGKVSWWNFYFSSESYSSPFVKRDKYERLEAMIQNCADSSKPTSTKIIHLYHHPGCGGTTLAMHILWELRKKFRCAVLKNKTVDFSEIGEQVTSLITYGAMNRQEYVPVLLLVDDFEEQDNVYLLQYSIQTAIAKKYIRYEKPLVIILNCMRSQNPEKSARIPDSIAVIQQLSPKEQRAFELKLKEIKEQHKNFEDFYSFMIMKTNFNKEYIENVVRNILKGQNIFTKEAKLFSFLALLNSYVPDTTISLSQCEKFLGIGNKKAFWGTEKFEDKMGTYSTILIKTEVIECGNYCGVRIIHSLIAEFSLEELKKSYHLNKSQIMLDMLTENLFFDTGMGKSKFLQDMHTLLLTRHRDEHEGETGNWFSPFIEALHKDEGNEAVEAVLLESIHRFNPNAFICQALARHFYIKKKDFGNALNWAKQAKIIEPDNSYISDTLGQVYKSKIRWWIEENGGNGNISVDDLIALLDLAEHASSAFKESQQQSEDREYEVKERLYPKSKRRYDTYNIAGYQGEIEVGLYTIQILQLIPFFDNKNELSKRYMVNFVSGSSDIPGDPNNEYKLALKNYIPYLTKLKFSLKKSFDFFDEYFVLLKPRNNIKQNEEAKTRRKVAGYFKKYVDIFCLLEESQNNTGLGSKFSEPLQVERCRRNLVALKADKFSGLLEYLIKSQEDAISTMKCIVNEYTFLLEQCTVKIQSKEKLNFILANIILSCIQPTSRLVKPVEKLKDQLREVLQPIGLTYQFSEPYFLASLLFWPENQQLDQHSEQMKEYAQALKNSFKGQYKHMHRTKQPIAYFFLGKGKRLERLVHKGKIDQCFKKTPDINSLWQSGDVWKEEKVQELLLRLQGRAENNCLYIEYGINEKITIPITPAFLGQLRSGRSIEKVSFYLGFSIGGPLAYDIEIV

Columns and labels:
[1] = target: T1, HA-6E6 (HA-tagged HPV-6 E6) in N/TERT-1 keratinocytes (human papillomavirus type 6 (6b)) (UniProt P06462); assay: proximity ligation
T1 sequence: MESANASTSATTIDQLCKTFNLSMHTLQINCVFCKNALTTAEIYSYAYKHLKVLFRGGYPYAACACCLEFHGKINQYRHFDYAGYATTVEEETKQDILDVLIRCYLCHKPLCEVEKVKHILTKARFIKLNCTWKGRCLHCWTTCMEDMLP

[2] = target: T2, HA-11E6 (N-terminal HA-tagged HPV-11 E6) in HEK293 cells (human papillomavirus type 11) (UniProt P04019); assay: co-IP
T2 sequence: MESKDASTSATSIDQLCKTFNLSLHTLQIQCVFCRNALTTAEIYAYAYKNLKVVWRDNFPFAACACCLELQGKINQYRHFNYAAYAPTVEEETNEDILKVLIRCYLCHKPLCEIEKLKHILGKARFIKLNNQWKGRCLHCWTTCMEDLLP

[3] = target: T3, HA-6E6 (N-terminal HA-tagged HPV-6 E6) in HEK293 cells (human papillomavirus type 6 (6b)) (UniProt P06462); assay: co-IP
T3 sequence: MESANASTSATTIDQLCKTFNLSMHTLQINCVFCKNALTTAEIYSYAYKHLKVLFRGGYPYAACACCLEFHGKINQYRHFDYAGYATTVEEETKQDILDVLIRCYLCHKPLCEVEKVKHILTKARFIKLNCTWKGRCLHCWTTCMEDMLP

[4] = target: T4, HA-11E6 (HA-tagged HPV-11 E6) in N/TERT-1 keratinocytes (human papillomavirus type 11) (UniProt P04019); assay: proximity ligation
T4 sequence: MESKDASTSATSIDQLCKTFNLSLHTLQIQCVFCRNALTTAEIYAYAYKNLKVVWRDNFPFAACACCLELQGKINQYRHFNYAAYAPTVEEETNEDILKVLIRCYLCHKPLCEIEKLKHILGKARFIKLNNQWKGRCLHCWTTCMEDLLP

[5] = target: HA-16E6 (HA-tagged HPV-16 E6) in N/TERT-1 keratinocytes (human papillomavirus type 16) (UniProt P03126); assay: proximity ligation
[6] = target: T5, HA-11E6 (HA-tagged HPV-11 E6) in N/TERT-1 keratinocytes (human papillomavirus type 11), P04019; assay: proximity ligation; conditions: remark: other sources report otherwise
T5 chain: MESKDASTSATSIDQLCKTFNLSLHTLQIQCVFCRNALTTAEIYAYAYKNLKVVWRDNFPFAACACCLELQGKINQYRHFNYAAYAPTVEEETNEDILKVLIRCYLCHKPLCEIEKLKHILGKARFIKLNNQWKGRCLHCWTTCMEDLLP

Q: “E6 associated protein (E6AP), endogenous in N/TERT-1 keratinocytes (from UniProt Q05086 1-875)” was tested. Which binding [1] did it give?
A: binds

Q: For “sterile α motif domain containing 9 (SAMD9), endogenous in HEK293 cells (from UniProt Q5K651 1-1589)”, which binding [2] is on record?
A: binds

Q: And the binding [3]?
A: binds

Q: For “sterile α motif domain containing 9 (SAMD9), endogenous in N/TERT-1 keratinocytes (from UniProt Q5K651 1-1589)”, which binding [4] is on record?
A: binds

Q: What about the binding [5] of the same molecule?
A: no binding

Q: What about the binding [1] of the same molecule?
A: binds

B1: E6 associated protein (E6AP), endogenous in N/TERT-1 keratinocytes, Q05086 1-875 (protein)
chain: MEKLHQCYWKSGEPQSDDIEASRMKRAAAKHLIERYYHQLTEGCGNEACTNEFCASCPTFLRMDNNAAAIKALELYKINAKLCDPHPSKKGASSAYLENSKGAPNNSCSEIKMNKKGARIDFKDVTYLTEEKVYEILELCREREDYSPLIRVIGRVFSSAEALVQSFRKVKQHTKEELKSLQAKDEDKDEDEKEKAACSAAAMEEDSEASSSRIGDSSQGDNNLQKLGPDDVSVDIDAIRRVYTRLLSNEKIETAFLNALVYLSPNVECDLTYHNVYSRDPNYLNLFIIVMENRNLHSPEYLEMALPLFCKAMSKLPLAAQGKLIRLWSKYNADQIRRMMETFQQLITYKVISNEFNSRNLVNDDDAIVAASKCLKMVYYANVVGGEVDTNHNEEDDEEPIPESSELTLQELLGEERRNKKGPRVDPLETELGVKTLDCRKPLIPFEEFINEPLNEVLEMDKDYTFFKVETENKFSFMTCPFILNAVTKNLGLYYDNRIRMYSERRITVLYSLVQGQQLNPYLRLKVRRDHIIDDALVRLEMIAMENPADLKKQLYVEFEGEQGVDEGGVSKEFFQLVVEEIFNPDIGMFTYDESTKLFWFNPSSFETEGQFTLIGIVLGLAIYNNCILDVHFPMVVYRKLMGKKGTFRDLGDSHPVLYQSLKDLLEYEGNVEDDMMITFQISQTDLFGNPMMYDLKENGDKIPITNENRKEFVNLYSDYILNKSVEKQFKAFRRGFHMVTNESPLKYLFRPEEIELLICGSRNLDFQALEETTEYDGGYTRDSVLIREFWEIVHSFTDEQKRLFLQFTTGTDRAPVGGLGKLKMIIAKNGPDTERLPTSHTCFNVLLLPEYSSKEKLKERLLKAITYAKGFGML
Q: B1 was tested. Which binding [6] did it give?
A: binds
